The supplement of paper PMC8728848
The list shows a part of the results.

Tests used:
Assay in all cases: glycan array binding signal (z-score within array); higher = stronger binding
Conditions in all cases: glycan notation: IUPAC condensed, linker removed
[1] = biological target: Neu5Ac(a2-3)Gal(b1-3)GlcNAc6S
Procedure, shortened: (§1)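 Glycan array data were curated from 3228 arrays in the Consortium for Functional Glycomics database and kept only where the protein sequence was available. Glycan names were converted to IUPAC-condensed notation, and columns mapping to the same glycan were averaged. The binding signal is a within-array Z-score, averaged across arrays of the same protein sequence at different concentrations or buffers and across linkers. Negative Z-scores can be read as non-binding.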

[2] = biological target: Neu5Ac(a2-3)Gal(b1-3)[Fuc(a1-4)]GlcNAc
Procedure, shortened: as §1

[3] = biological target: Neu5Ac(a2-3)Gal(b1-3)[Fuc(a1-4)]GlcNAc(b1-3)Gal(b1-3)[Fuc(a1-4)]GlcNAc
Procedure, shortened: as §1

[4] = biological target: Neu5Ac(a2-3)Gal(b1-3)[Fuc(a1-4)]GlcNAc(b1-3)Gal(b1-4)[Fuc(a1-3)]GlcNAc
Procedure, shortened: as §1

[5] = biological target: Neu5Ac(a2-3)Gal(b1-3)[GlcNAc(b1-6)]GalNAc
Procedure, shortened: as §1

[6] = biological target: Neu5Ac(a2-3)Gal(b1-3)[Neu5Ac(a2-6)]GalNAc
Procedure, shortened: as §1

[7] = biological target: Neu5Ac(a2-3)Gal(b1-3)[Neu5Ac(a2-6)]GlcNAc(b1-3)[Fuc(a1-3)[Gal(b1-4)]GlcNAc(b1-6)]Gal(b1-4)Glc
Procedure, shortened: as §1

[8] = biological target: Neu5Ac(a2-3)Gal(b1-3)]Neu5Ac(a2-3)Gal(b1-4)]GlcNAc
Procedure, shortened: as §1

Neu5Ac(a2-3)Gal(b1-4)Glc = biological target: Neu5Ac(a2-3)Gal(b1-4)Glc
Procedure, shortened: as §1

[9] = biological target: Neu5Ac(a2-3)Gal(b1-4)GlcNAc
Procedure, shortened: as §1

[10] = biological target: Neu5Ac(a2-3)Gal(b1-4)GlcNAc(b1-2)Man
Procedure, shortened: as §1

[11] = biological target: Neu5Ac(a2-3)Gal(b1-4)GlcNAc(b1-2)Man(a1-3)[GlcNAc(b1-4)][Neu5Ac(a2-3)Gal(b1-4)GlcNAc(b1-2)Man(a1-6)]Man(b1-4)GlcNAc(b1-4)GlcNAc
Procedure, shortened: as §1

[12] = biological target: Neu5Ac(a2-3)Gal(b1-4)GlcNAc(b1-2)Man(a1-3)[Neu5Ac(a2-3)Gal(b1-4)GlcNAc(b1-2)Man(a1-6)]Man(b1-4)GlcNAc(b1-4)GlcNAc
Procedure, shortened: as §1

[13] = biological target: Neu5Ac(a2-3)Gal(b1-4)GlcNAc(b1-2)Man(a1-3)[Neu5Ac(a2-3)Gal(b1-4)GlcNAc(b1-2)Man(a1-6)]Man(b1-4)GlcNAc(b1-4)[Fuc(a1-6)]GlcNAc
Procedure, shortened: as §1

[14] = biological target: Neu5Ac(a2-3)Gal(b1-4)GlcNAc(b1-2)Man(a1-3)[Neu5Ac(a2-6)Gal(b1-4)GlcNAc(b1-2)Man(a1-6)]Man(b1-4)GlcNAc(b1-4)GlcNAc
Procedure, shortened: as §1

[15] = biological target: Neu5Ac(a2-3)Gal(b1-4)GlcNAc(b1-2)[Neu5Ac(a2-3)Gal(b1-4)GlcNAc(b1-4)]Man(a1-3)[GlcNAc(b1-4)][Neu5Ac(a2-3)Gal(b1-4)GlcNAc(b1-2)[Neu5Ac(a2-3)Gal(b1-4)GlcNAc(b1-6)]Man(a1-6)]Man(b1-4)GlcNAc(b1-4)GlcNAc
Procedure, shortened: as §1

[16] = biological target: Neu5Ac(a2-3)Gal(b1-4)GlcNAc(b1-2)[Neu5Ac(a2-3)Gal(b1-4)GlcNAc(b1-4)]Man(a1-3)[GlcNAc(b1-4)][Neu5Ac(a2-3)Gal(b1-4)GlcNAc(b1-4)Man(a1-6)]Man(b1-4)GlcNAc(b1-4)GlcNAc
Procedure, shortened: as §1

[17] = biological target: Neu5Ac(a2-3)Gal(b1-4)GlcNAc(b1-2)[Neu5Ac(a2-3)Gal(b1-4)GlcNAc(b1-6)]Man(a1-6)[Neu5Ac(a2-3)Gal(b1-4)GlcNAc(b1-2)Man(a1-3)][GlcNAc(b1-4)]Man(b1-4)GlcNAc(b1-4)GlcNAc
Procedure, shortened: as §1

[18] = biological target: Neu5Ac(a2-3)Gal(b1-4)GlcNAc(b1-3)Gal
Procedure, shortened: as §1

[19] = biological target: Neu5Ac(a2-3)Gal(b1-4)GlcNAc(b1-3)Gal(b1-3)GlcNAc
Procedure, shortened: as §1

[20] = biological target: Neu5Ac(a2-3)Gal(b1-4)GlcNAc(b1-3)Gal(b1-4)GlcNAc
Procedure, shortened: as §1

[21] = biological target: Neu5Ac(a2-3)Gal(b1-4)GlcNAc(b1-3)Gal(b1-4)GlcNAc(b1-2)Man(a1-3)[Neu5Ac(a2-3)Gal(b1-4)GlcNAc(b1-3)Gal(b1-4)GlcNAc(b1-2)Man(a1-6)]Man(b1-4)GlcNAc(b1-4)GlcNAc
Procedure, shortened: as §1

[22] = biological target: Neu5Ac(a2-3)Gal(b1-4)GlcNAc(b1-3)Gal(b1-4)GlcNAc(b1-3)Gal(b1-4)GlcNAc
Procedure, shortened: as §1

[23] = biological target: Neu5Ac(a2-3)Gal(b1-4)GlcNAc(b1-3)Gal(b1-4)GlcNAc(b1-3)Gal(b1-4)GlcNAc(b1-2)Man(a1-3)[Neu5Ac(a2-3)Gal(b1-4)GlcNAc(b1-3)Gal(b1-4)GlcNAc(b1-3)Gal(b1-4)GlcNAc(b1-2)Man(a1-6)]GalNAc
Procedure, shortened: as §1

[24] = biological target: Neu5Ac(a2-3)Gal(b1-4)GlcNAc(b1-3)Gal(b1-4)GlcNAc(b1-3)GalNAc
Procedure, shortened: as §1

[25] = biological target: Neu5Ac(a2-3)Gal(b1-4)GlcNAc(b1-3)Gal(b1-4)GlcNAc(b1-3)[Neu5Ac(a2-3)Gal(b1-4)GlcNAc(b1-3)Gal(b1-4)GlcNAc(b1-6)]GalNAc
Procedure, shortened: as §1

[26] = biological target: Neu5Ac(a2-3)Gal(b1-4)GlcNAc(b1-3)Gal(b1-4)GlcNAc(b1-6)[Gal(b1-3)]GalNAc
Procedure, shortened: as §1

[27] = biological target: Neu5Ac(a2-3)Gal(b1-4)GlcNAc(b1-3)Gal(b1-4)[Fuc(a1-3)]GlcNAc
Procedure, shortened: as §1

[28] = biological target: Neu5Ac(a2-3)Gal(b1-4)GlcNAc(b1-3)GalNAc
Procedure, shortened: as §1

[29] = biological target: Neu5Ac(a2-3)Gal(b1-4)GlcNAc(b1-3)[Neu5Ac(a2-3)Gal(b1-4)GlcNAc(b1-6)]GalNAc
Procedure, shortened: as §1

B1: LecB PA14 (Pseudomonas aeruginosa) (protein)
chain: MATQGVFTLPANTQFGVTAFANSAGTQTVNVQVNNETVATFTGQSTNNAIIGSKVLNSGGGGKVQILVSVNGRSSDLVSAQVILANELNFALVGSEDSTDNDYNDAVVVINWPLG
glycan array binding signal (z-score) [1]: -0.181 | glycan array binding signal (z-score) [2]: 2.44 | glycan array binding signal (z-score) [3]: 3.3 | glycan array binding signal (z-score) [4]: 1.72 | glycan array binding signal (z-score) [5]: -0.817 | glycan array binding signal (z-score) [6]: -0.618 | glycan array binding signal (z-score) [7]: -0.249 | glycan array binding signal (z-score) [8]: 0.029 | glycan array binding signal (z-score) (Neu5Ac(a2-3)Gal(b1-4)Glc): -0.458 | glycan array binding signal (z-score) [9]: -0.56 | glycan array binding signal (z-score) [10]: -0.409 | glycan array binding signal (z-score) [11]: -0.447 | glycan array binding signal (z-score) [12]: -0.749 | glycan array binding signal (z-score) [13]: -0.276 | glycan array binding signal (z-score) [14]: 2.48 | glycan array binding signal (z-score) [15]: 0.358 | glycan array binding signal (z-score) [16]: -0.551 | glycan array binding signal (z-score) [17]: -0.506 | glycan array binding signal (z-score) [18]: -0.718 | glycan array binding signal (z-score) [19]: -0.354 | glycan array binding signal (z-score) [20]: -0.721 | glycan array binding signal (z-score) [21]: -0.475 | glycan array binding signal (z-score) [22]: -0.643 | glycan array binding signal (z-score) [23]: -0.275 | glycan array binding signal (z-score) [24]: -0.535 | glycan array binding signal (z-score) [25]: -0.427 | glycan array binding signal (z-score) [26]: -0.385 | glycan array binding signal (z-score) [27]: -0.854 | glycan array binding signal (z-score) [28]: -0.353 | glycan array binding signal (z-score) [29]: -0.521
